Reference: PubChem BioAssay (NCATS)
This list was built around the results that the source calls inconclusive (neither active nor inactive); the mix of calls is not that of the screen. No potency is given beside an inconclusive call; the fits are too rough. Calls of active or inactive are those of the source. Calls follow the shape of the dose curve; as a rule, active = well fitted curve in the direction sought with a large enough effect; inconclusive = small, poorly fitted or top-dose-only effect, or another doubt; inactive = no such curve, though single readings can be large; an effect the other way counts as inactive or inconclusive.
Potency is read from the fitted curve at half-maximal effect; tags tell the direction and shape of the fitted curve.

Assay: Viability qHTS for spleen associated tyrosine kinase inhibitor (SYKi) drug resistant MV4-11 cells (AID 1963824); also: nearly all actives have a fitted effect of over 35% in size
Conditions: SYKi-resistant MV4-11 viability, CellTiter-Glo, 72 h; series mostly up to 45 µM; viability, % of control: at the top concentration
Summary of the method: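 SYK-inhibitor-resistant MV4-11 AML cells were seeded at 500 per well onto compound and cultured 72 hours (37 °C, 5% CO2). CellTiter-Glo was then added, and after 10 min at room temperature, luminescence gave viability.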
For `CC(C)=CCC/C(C)=C/CCC1(C)Oc2c(c(O)cc3c2CN(C(CCC(=O)O)C(=O)O)C3=O)CC1O` (stereo not given), the “viability, % of control” value was inactive: 91.4% [at 17.3 µM]. For `CC(=O)C12OC(C)(C)OC1CC1C3CCC4=CC(=O)C=CC4(C)C3(F)C(O)CC12C` (stereo not given), the “viability, % of control” value was inactive: 96.7%. With `C[C@@H]1O[C@@H](O[C@H]2[C@H](O[C@H]3[C@H](O[C@H]4CC[C@@]5(C)C(CC[C@]6(C)C5CC=C5[C@@H]7CC(C)(C)C[C@@H](O)[C@]7(C)CC[C@]56C)C4(C)C)O[C@H](C(=O)O)[C@@H](O)[C@@H]3O)O[C@H](C(=O)O)[C@H](O)[C@@H]2O)[C@H](O)[C@H](O)[C@H]1O` (stereo not given in full) the viability, % of control was inactive: 89.8% [at 9.25 µM]. With `Cc1ccc(C2(COC(=O)C(C)C)CO2)c(OC(=O)C(C)C)c1` (stereo not given) the Potency was active: 2.02 µM. For `O=C(/C=C/c1ccccc1)OC[C@]12O[C@H]1[C@@H](O)[C@@H]1C=CO[C@@H](O[C@@H]3O[C@H](CO)[C@@H](O)[C@H](O)[C@H]3O)[C@@H]12`, the “viability, % of control” value was inactive: 91.5% [at 17.3 µM]. In the case of `C=C1CC[C@@H]2[C@](C)(CO)[C@H](O)CC[C@@]2(C)[C@@H]1CC(O)C1=CCOC1=O` (stereo not given in full), the Potency is reported as active: 4.53 µM. With `C[C@@H]1COCCN1c1cc(C2(S(C)(=O)=O)CC2)nc(-c2cccc3[nH]ccc23)n1` the Potency was active: 0.366 µM. With `O=C(N[C@H]1CCC[C@H](CO)C1)C1CCN(c2nc3cc(Cl)c(-c4ccc(Cl)cc4)cc3o2)CC1` the Potency was active: 16.6 µM. For `C/C=C(/C)C(=O)O[C@@H]1C[C@@H](OC(=O)/C(C)=C\C)[C@@]2(C)C3C(=O)C=C(C)C2C3C1(C)C`, the Potency was inconclusive [cytotoxic, partial curve, poor fit]. For `OCc1ccccc1O[C@@H]1O[C@H](CO)[C@@H](O)[C@H](O)[C@H]1O`, the Potency was “inactive”. With `O=C(/C=C/c1ccc(O)c(O)c1)O[C@H]1[C@@H]2C=CO[C@@H](O[C@@H]3O[C@H](CO)[C@@H](O)[C@H](O)[C@H]3O)[C@@H]2[C@@]2(CO)O[C@@H]12` the “viability, % of control” value was inactive: 103% [at 17.3 µM]. With `C#Cc1cnc2[nH]c(=O)n(C(CC)CC)c2n1` the “viability, % of control” value was inactive: 83.7%. In the case of `CC1=C(COC2OC(CO)C(O)C(O)C2O)C(C(CO)C(=O)O)CC1` (stereo not given), the “viability, % of control” value is reported as inactive: 104%. For `O=C1NC(=O)[C@@H](c2c[nH]c3ccccc23)[C@H]1c1cn2c3c(cccc13)CCC2`, the Potency was active: 0.742 µM. For `CN(C)CCCN1c2ccccc2Sc2ccc(Cl)cc21`, the Potency was inconclusive [cytotoxic, partial curve, poor fit]. For `CC(C)=CCc1ccc(Oc2c(O)cc(C)cc2CO)c(C(=O)O)c1O`, the Potency was inconclusive [cytotoxic, single point]. In the case of `N#CC(CCCN1CCN(/N=C/c2cccnc2)CC1)(c1ccccc1)c1ccccc1`, the Potency is reported as inconclusive [cytotoxic, partial curve, poor fit]. In the case of `c1ccc(CN(CC2=NCCN2)c2ccccc2)cc1`, the Potency is reported as inconclusive [cytotoxic, single point]. For `COc1ccc(N2CCN(CCCNC(=O)Cn3c(=O)c4cccn4c4c(C)ccnc43)CC2)cc1`, the Potency was inconclusive [cytotoxic, partial curve, poor fit]. With `C=C1CCC[C@]2(C)C[C@]3(O)OC(=O)C(C)=C3C[C@@H]12` the “viability, % of control” value was inactive: 79.4%. In the case of `O=C(O)c1[nH]n(-c2ccc(S(=O)(=O)O)cc2)c(=O)c1N=Nc1ccc(S(=O)(=O)O)cc1`, the Potency is reported as inconclusive [cytotoxic, full curve, poor fit]. For `COc1ccc(/C=C/C(=O)O[C@@H]2[C@@H](O)[C@H](C)O[C@@H](O[C@H]3[C@@H]4C=CO[C@@H](O[C@H]5O[C@@H](CO)[C@H](O)[C@@H](O)[C@@H]5O)[C@@H]4[C@@]4(CO)O[C@@H]34)[C@@H]2OC(C)=O)cc1`, the “viability, % of control” value was inactive: 92.6% [at 17.3 µM]. For `CC1OC(O[C@H]2CC[C@@]3(C)C(CC[C@]4(C)C3CC=C3C5CC(C)(C)CC[C@]5(C(=O)OC5OC(CO)C(OC6OC(COC7OCC(O)C(O)C7O)C(O)C(O)C6O)C(O)C5O)CC[C@]34C)C2(C)C)C(O)C(O)C1OC1OCC(OC2OCC(O)C(O)C2O)C(O)C1O` (stereo not given in full), the Potency was inconclusive [cytotoxic, partial curve, poor fit]. For `Nc1nc2c(cnn2CCCc2ccc(O)cc2)c2nc(-c3ccco3)nn12`, the Potency was inconclusive [cytotoxic, partial curve, poor fit]. For `COc1cc(C(C)=O)ccc1O[C@@H]1O[C@H](CO[C@@H]2OC[C@@H](O)[C@H](O)[C@H]2O)[C@@H](O)[C@H](O)[C@H]1O`, the “viability, % of control” value was inactive: 40.5% [at 17.3 µM]. In the case of `COc1c(C)c2c(c(O)c1C/C=C(\C)CC/C=C(\C)CCC(=O)O)C(=O)OC2`, the “viability, % of control” value is reported as inactive: 87.3%. For `Cc1ccc2c(Cl)cc(Cl)c(O)c2n1`, the “viability, % of control” value was inactive: 94.6%.

Assay: Cellular viability qHTS for adrenocortical cancer (ACC) cell line NCI-H295R (AID 1963990); also: nearly all actives have a fitted effect of over 60% in size;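 as to activity change, negative = viability loss: 0% = DMSO only wells and -100% = full killing with cytotoxic reference compound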
Conditions: CellTiter-Glo ATP luminescence, 48 h; activity change, negative = viability loss: at 46.1 µM (top of the series)
Summary of the method: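 Compound titrations (up to 46 uM final) are applied to NCI-H295R cultures for 48 h at 37C. Viable cell number is estimated by CellTiter-Glo signal, normalised to DMSO and doxorubicin controls.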
In the case of `CC(C)(C)C[C@H]1N[C@@H](C(=O)NC2CCC(O)CC2)[C@H](c2cccc(Cl)c2F)[C@@]12C(=O)Nc1cc(Cl)ccc12` (stereo not given in full), the Potency is reported as inconclusive [cytotoxic, single point]. With `Cc1[nH]c2ccc(F)cc2c1-c1nc2c3cccnc3c3ncccc3c2[nH]1` the Potency was active: 3.16 µM. In the case of `NC(CSCC(=O)O)C(=O)O` (stereo not given), the “activity change, negative = viability loss” value is reported as inactive: -1.39%.
